The campaign covered roughly 420,000 compounds. About 64,000 (15%) were called active. This list was built around the results that the source calls inconclusive (neither active nor inactive); the mix of calls is not that of the screen. The call rests on the fitted dose curve; in most records, active means well fitted inhibition curve with a large enough effect; inconclusive means small, poorly fitted or top-dose-only effect; inactive means flat fitted curve, though single readings scatter. No potency is given beside an inconclusive call; the fits are too rough.
Assay: qHTS for Inhibitors of human tyrosyl-DNA phosphodiesterase 1 (TDP1): qHTS in cells in absence of CPT; further: nearly all actives have a fitted effect of over 55% in size
Conditions: DT40 Tdp1-/- hTDP1 cells, no CPT, ATP luminescence, 48 h; activity change, negative = growth inhibition: at 46.2 µM (top of the series) unless noted
How it was run: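 Stably hTDP1-transfected Tdp1-null chicken DT40 cells were treated with library compounds minus camptothecin and grown for at least 48 hr at 37 °C, after which cellular ATP was quantified by luminescence.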
On the % scale 0 is the no-effect control and ±100 the full control effect; potency means the concentration at half of the fitted maximal effect; tags describe the fitted curve by direction and shape.

Compound	Potency	activity change, negative = growth inhibition
C#CCN(C)CC/C=C1\c2ccccc2CSc2ccccc21	inconclusive [inhibitor, single point]	–
CS(=O)(=O)c1ccc(Cl)c(NC(=O)CN2CCCC2c2ccc3c(c2)OCCCO3)c1 (centres undefined)	inconclusive [inhibitor, single point]	–
CC(NC(=O)Cc1ccc(NC(=O)N2CCSc3ncccc32)cc1)c1ccccc1 (centres undefined)	inconclusive [inhibitor, single point]	–
COc1ccc(CCNC(=O)COC(=O)COc2c(C)cc(C)cc2C)cc1OC	inactive	–
Cc1ccc(C)c(NC(=O)c2ccc3ccccc3n2)c1	inconclusive [inhibitor, partial curve]	–
Cc1nn(Cc2ccc(F)cc2)c(C)c1NC(=O)c1nn(C)cc1Cl	–	inconclusive: -33.4% [inhibitor]
CC(=O)Nc1ccc(NC(=O)CSc2nc3ccccc3nc2N2CCCCC2)cc1	inconclusive [inhibitor, full curve]	–
CCN1CCN(c2ncnc3c2cnn3-c2ccc(C)c(C)c2)CC1	active: 18.4 µM	–
Cc1ccc(C)c(NC(=O)Cn2c(=O)n(CC3CCCO3)c(=O)c3ccccc32)c1 (centres undefined)	inconclusive [inhibitor, full curve, poor fit]	–
Cc1c(C(=O)N(C)C)sc2nc(-c3ccccn3)[nH]c(=O)c12	inconclusive [inhibitor, single point]	–
CCOc1nc(N2CCOCC2)nc(N2CCOCC2)n1	inconclusive [inhibitor, single point]	–
Cc1cc(F)c(F)c(C(=O)N2C(C)CCCC2C)c1Cl (centres undefined)	inconclusive [inhibitor, partial curve]	–
O=C(Nc1cccc(-c2cn3cccnc3n2)c1)c1cc(Br)ccc1Cl	inconclusive [inhibitor, single point]	–
O=C(C[n+]1cc(-c2ccc(F)cc2)n2c1CCC2)Nc1nc(-c2ccccc2)cs1	inconclusive [inhibitor, single point]	–
Cc1ccc(/C=N/NC(=O)c2ccccn2)s1	inconclusive [inhibitor, single point]	–
CC(/C=N/NC(=O)c1ccncc1)=C\c1ccc(C(C)C)cc1	inconclusive [inhibitor, single point]	–
COc1ccc(NC(=O)Nc2cc(C)ccn2)cc1	inactive	–
COc1ccc(-c2nn(-c3ccccc3)cc2/C=N/Nc2ccc(S(N)(=O)=O)cc2[N+](=O)[O-])cc1OC	inconclusive [inhibitor, partial curve, poor fit]	–
CC(=O)Nc1ccc(NC2=C(Cl)C(=O)c3ccccc3C2=O)cc1	inconclusive [inhibitor, single point]	–
O=C(NCCCO)c1c(O)c2cccc3c2n(c1=O)CCC3	inactive	–
CNC(=O)CCC(=O)Nc1ccc(C(=O)OC)cc1	inactive	–
COc1ccccc1N1C(N)=NC(N)=NC12CCCCC2	inconclusive [inhibitor, single point]	–
CC1Oc2ccccc2N(CC(=O)NC2CCCCC2)C1=O (centres undefined)	inactive	–

Compound	Potency	activity change, negative = growth inhibition
Cn1c(-n2cccc2)c(-c2c(-c3ccccc3)[nH]c3c2c(=O)[nH]c(=O)n3C)c(=O)[nH]c1=O	inconclusive [inhibitor, single point]	–
COC(=O)NCC(c1ccc2c(c1)OCO2)N1CCN(c2ccc(OC)cc2)CC1 (centres undefined)	inconclusive [inhibitor, single point]	–
Cc1ccc(C(=O)Nc2nnc(CC(=O)N/N=C/c3ccncc3)s2)cc1	inconclusive [inhibitor, single point]	–
O=C(Cc1nc2ccccc2[nH]1)c1ccc([N+](=O)[O-])cc1	inconclusive [inhibitor, single point]	–
O=C1/C(=C/c2cccnc2)SC(=S)N1CC1CCCO1 (centres undefined)	inconclusive [inhibitor, single point]	–
C/C=C(\C)C(=O)NCCN1C2=NC[C@H](Cc3ccccc3)N2C[C@@H]1Cc1ccc(OC)cc1	inconclusive [inhibitor, single point]	–
CC(=O)Nc1c2c(nn1-c1ccc(Cl)cc1)CSC2	inactive	–
COc1cc(C(=O)Nn2c(CC(C)C)nc3ccccc3c2=O)cc(OC)c1OC	inconclusive [inhibitor, partial curve]	–
O=C(Nc1c(Cl)cccc1Cl)C1CCC1	inactive	–
CCN(Cc1ccccc1)C(=O)CN1C(=O)COc2ccc(S(=O)(=O)NC3CCCC3)cc21	inconclusive [inhibitor, single point]	–
O=c1cc(C(F)(F)F)[nH]c2c(OC(F)(F)F)cccc12	inconclusive [inhibitor, partial curve, poor fit]	–
CCCCc1nnc(NC(=O)C2CCN(c3ncnc4sc(C)c(C)c34)CC2)s1	inconclusive [inhibitor, partial curve]	–
COc1ccc(C(=O)NCc2ccc3c(c2)OCO3)c(OC)c1	inconclusive [inhibitor, single point]	–
CCOC(=O)CSc1nc2sc3c(c2c(=O)n1-c1ccccc1)CC(C(C)C)OC3 (centres undefined)	inconclusive [inhibitor, partial curve]	–
O=C(NCc1cc(Cl)cc(Cl)c1)c1ccc2sc([C@H]3C[C@H](O)[C@@H](CO)O3)nc2c1	inconclusive [inhibitor, single point]	–
COC(=O)c1c(NC(=O)CSc2ncn[nH]2)sc(C)c1C	inconclusive [inhibitor, partial curve]	–
Cc1cc(Br)cn2c(Cc3ccccc3)c(C3CCCCC3)nc12	active: 16.4 µM	–
Cc1oc(=O)oc1CN1CCN(c2cc3c(cc2F)c(=O)c(C(=O)O)c2n3C(C)S2)CC1 (centres undefined)	inactive	–
COc1cccc(CNC(=O)c2cc3c(=O)n(Cc4cccnc4)ccc3nc2C)c1	inconclusive [inhibitor, single point]	–
COc1ccc(-c2sc3ccc(OC)cc3c2-c2ccc(OC)nc2)cc1	inconclusive [inhibitor, partial curve]	–
CC(C)COc1ccc(C(=O)Nc2nnc(S(=O)(=O)N(C)Cc3ccco3)s2)cc1	inconclusive [inhibitor, single point]	–
CCc1cc(=O)oc2c(C)c(OCC(=O)N3CCCc4ccccc43)ccc12	inconclusive [inhibitor, single point]	–
CCOc1ccc(NC(=O)c2cc3ccccc3cc2O)cc1	inconclusive [inhibitor, partial curve]	–

Compound	Potency	activity change, negative = growth inhibition
O=C(c1csnn1)N1CCC2(CC1)CN(c1cccc(-c3ccccc3)c1)C2	active: 20.6 µM	–
Fc1ccc(-c2[nH]ncc2CN(CC2CCC2)CC2CCCO2)c(F)c1 (centres undefined)	inconclusive [inhibitor, single point]	–
COc1ccc(C(=O)Nc2nnc(S(=O)(=O)N(C)c3ccc(C)cc3)s2)cc1	inconclusive [inhibitor, single point]	–
CCOc1ccc(NC(=O)C(=O)N/N=C/c2cccnc2)cc1	inactive	–
COc1ccc(-c2oc(/N=C/N3CCOCC3)c(C#N)c2-c2ccc(OC)cc2)cc1	inconclusive [inhibitor, single point]	–
CN1OC[C@@H]2CN(Cc3ccccc3)[C@H](c3cccc(Oc4ccccc4)c3)C[C@@H]21	active: 23.1 µM	–
CCOc1ccc(S(=O)(=O)N2CCCC(C(=O)NCc3ccccn3)C2)cc1Cl (centres undefined)	active: 16.4 µM	–
CCC(C)(c1nnnn1-c1c(C)cccc1C)N(N=O)c1cccc(C(F)(F)F)c1 (centres undefined)	active: 20.6 µM	–
Fc1ccccc1-c1ccc(-c2nc3ccc(Cl)cn3c2Nc2ccc(Cl)cc2)o1	active: 3.55 µM	–
O=C(CSc1nc2ccccc2s1)NCCOc1ccccc1	inactive	–
CCc1ccccc1Nc1ncnc2c1cnn2-c1ccc(C)cc1C	active: 18.4 µM	–
CCOC(=O)[C@H]1[C@H]2COc3ccc(Cl)cc3[C@@H]2N2C(=O)CN(Cc3ccccc3)C(=O)[C@@]12C	active: 20.6 µM	–
O=C(NCc1ccco1)c1cc2cc3ccc(Cl)cc3nc2o1	inconclusive [inhibitor, single point]	–
O=C(Nc1ccccn1)C1CCN(C(=O)Nc2ccccc2)CC1	inactive	–
Cc1ccc(-c2nc(C#N)c(N3CCC(C(N)=O)CC3)o2)cc1	inactive	–
Fc1ccc2[nH]c3c(N4CCN(c5ccccc5)CC4)ncnc3c2c1	active: 4.61 µM	–
O=C(COc1cccc(C(F)(F)F)c1)Nc1cccc(S(=O)(=O)NC2=NCCCCC2)c1	active: 25.9 µM	–
COc1ccc(C(=O)OCC(=O)c2ccc(C)c(S(=O)(=O)N3CCOCC3)c2)cc1OC	active: 11.6 µM	–
CCOc1ccc(-c2nc(N)ncc2Oc2ccc(OC)cc2)c(O)c1	inactive	–
CCOc1cc(C(=O)Nc2ccc(S(=O)(=O)Nc3onc(C)c3C)cc2)cc(OCC)c1OCC	inconclusive [inhibitor, partial curve]	–
COc1ccc(Oc2ncc3nc(CCc4ccccc4)c(=O)n(C4CC4)c3n2)cc1	inconclusive [inhibitor, single point]	–
Cc1ccc(CNc2ccc(N3C(=O)CC(C)C3=O)cc2[N+](=O)[O-])cc1 (centres undefined)	inconclusive [inhibitor, partial curve]	–
Cc1nccc(-c2cccc(NC(=O)c3ccccc3Cl)c2)n1	inactive	–

From PubChem BioAssay AID686978 (National Center for Advancing Translational Sciences (NCATS), 2013)
